According to PMC6733861:
Results are given in words; binding and its absence hold for the method and conditions named. Binding seen in cells or lysates may run through a third protein. Some results given as binding are weak or reduced against the parent protein; the word gives no strength.

The chains behind the UniProt entries cited, without tags or fusion partners. Residues count along the entry.
UniProt P46462: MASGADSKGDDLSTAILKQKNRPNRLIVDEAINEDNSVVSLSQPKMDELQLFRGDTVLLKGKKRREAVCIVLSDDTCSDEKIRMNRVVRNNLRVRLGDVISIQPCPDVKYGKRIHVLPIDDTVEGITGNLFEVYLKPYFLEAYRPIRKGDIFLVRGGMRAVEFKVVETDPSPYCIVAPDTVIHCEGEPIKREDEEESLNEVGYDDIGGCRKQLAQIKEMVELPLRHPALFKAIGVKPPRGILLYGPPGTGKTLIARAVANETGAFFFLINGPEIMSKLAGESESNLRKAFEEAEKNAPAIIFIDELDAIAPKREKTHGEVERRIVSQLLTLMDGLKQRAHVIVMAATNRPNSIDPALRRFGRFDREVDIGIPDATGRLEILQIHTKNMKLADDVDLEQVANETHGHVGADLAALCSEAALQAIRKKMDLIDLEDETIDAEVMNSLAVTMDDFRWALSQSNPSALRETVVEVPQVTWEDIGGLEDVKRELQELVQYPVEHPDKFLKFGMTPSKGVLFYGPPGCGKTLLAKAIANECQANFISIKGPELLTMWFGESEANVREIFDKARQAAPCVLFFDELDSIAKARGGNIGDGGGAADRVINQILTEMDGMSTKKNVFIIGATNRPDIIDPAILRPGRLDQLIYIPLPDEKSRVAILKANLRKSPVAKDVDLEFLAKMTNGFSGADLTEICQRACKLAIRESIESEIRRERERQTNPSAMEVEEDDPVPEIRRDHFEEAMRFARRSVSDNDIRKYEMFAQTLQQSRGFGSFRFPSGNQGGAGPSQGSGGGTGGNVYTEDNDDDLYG
UniProt P19490, residues 19-907: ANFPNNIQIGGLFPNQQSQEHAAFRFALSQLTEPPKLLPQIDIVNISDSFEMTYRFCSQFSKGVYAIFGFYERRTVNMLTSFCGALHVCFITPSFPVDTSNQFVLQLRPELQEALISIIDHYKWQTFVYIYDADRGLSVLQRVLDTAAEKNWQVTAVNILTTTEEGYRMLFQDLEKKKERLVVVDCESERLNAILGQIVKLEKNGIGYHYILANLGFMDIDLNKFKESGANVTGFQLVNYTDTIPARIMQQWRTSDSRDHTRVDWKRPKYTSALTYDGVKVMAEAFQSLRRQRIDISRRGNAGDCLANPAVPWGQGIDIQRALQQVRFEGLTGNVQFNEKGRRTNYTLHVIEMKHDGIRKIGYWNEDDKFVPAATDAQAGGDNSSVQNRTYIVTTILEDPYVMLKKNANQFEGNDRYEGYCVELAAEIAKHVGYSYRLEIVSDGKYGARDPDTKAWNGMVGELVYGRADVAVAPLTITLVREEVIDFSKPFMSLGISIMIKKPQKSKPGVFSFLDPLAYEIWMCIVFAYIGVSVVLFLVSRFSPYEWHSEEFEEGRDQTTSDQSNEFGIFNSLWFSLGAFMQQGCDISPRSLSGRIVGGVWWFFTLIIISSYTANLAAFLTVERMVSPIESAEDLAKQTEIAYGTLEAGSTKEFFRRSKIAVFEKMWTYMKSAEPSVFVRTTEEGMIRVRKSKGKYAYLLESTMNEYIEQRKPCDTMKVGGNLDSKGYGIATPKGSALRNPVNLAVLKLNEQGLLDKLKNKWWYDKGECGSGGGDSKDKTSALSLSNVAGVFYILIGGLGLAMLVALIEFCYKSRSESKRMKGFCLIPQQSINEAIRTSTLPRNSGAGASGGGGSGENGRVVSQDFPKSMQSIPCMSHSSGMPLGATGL
UniProt P19491, residues 22-883: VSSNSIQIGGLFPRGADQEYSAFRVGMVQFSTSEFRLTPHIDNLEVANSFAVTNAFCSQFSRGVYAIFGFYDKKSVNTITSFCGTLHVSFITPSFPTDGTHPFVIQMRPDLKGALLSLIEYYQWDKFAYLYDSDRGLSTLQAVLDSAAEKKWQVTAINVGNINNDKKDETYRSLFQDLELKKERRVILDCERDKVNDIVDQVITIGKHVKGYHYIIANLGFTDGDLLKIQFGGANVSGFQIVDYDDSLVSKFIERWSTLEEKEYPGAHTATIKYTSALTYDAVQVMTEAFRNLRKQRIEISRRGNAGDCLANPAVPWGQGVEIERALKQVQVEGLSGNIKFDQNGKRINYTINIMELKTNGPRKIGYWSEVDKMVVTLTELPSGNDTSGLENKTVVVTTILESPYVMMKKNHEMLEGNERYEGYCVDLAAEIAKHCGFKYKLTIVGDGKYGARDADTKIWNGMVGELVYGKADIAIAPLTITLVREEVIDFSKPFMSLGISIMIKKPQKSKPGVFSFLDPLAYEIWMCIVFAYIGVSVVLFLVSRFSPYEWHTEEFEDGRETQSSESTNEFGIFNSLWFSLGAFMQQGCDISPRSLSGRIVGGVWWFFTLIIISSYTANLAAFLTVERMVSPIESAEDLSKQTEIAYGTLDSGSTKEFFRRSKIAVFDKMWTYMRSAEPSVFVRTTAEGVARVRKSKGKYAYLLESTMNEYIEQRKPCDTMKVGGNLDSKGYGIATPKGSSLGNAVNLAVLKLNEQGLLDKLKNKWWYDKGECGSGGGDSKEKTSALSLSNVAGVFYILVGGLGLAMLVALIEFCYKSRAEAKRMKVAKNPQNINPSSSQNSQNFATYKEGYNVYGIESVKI

Columns and labels:
[1] = molecular target: p97-GFP (UniProt P46462); test: co-IP; COS7 cells co-transfected with p97-GFP and HA-GluA1 or HA-GluA2; RIPA lysate; GFP-Trap 1 h at 4 °C
[2] = molecular target: GluA1 subunit of native AMPARs, endogenous (rat (endogenous in hippocampus)) (UniProt P19490); test: co-IP; cultured rat hippocampal neurons (14 DIV), RIPA lysate, IP with anti-GluA1, blot for p97; cells untreated or treated with glycine (200 μM, 3 min; chemical LTP, time course), NMDA (10 μM, 3 min; chemical LTD) or DBeQ (11 μM, 30 min)
[3] = molecular target: GluA1 subunit of native AMPARs, endogenous (rat (endogenous in hippocampus)) (UniProt P19490); test: co-IP; rat hippocampal homogenates in RIPA buffer, IP with anti-GluA1 or anti-GluA2, protein A-sepharose, 4 °C, washes with 500 mM NaCl; blot with anti-p97
[4] = molecular target: GluA2 subunit of native AMPARs, endogenous (rat (endogenous in hippocampus)) (UniProt P19491); test: as above
[5] = molecular target: HA-GluA2 (UniProt P19491); test: co-IP; COS7 cells co-transfected with p97 and HA-GluA1, HA-GluA2 or a GluA1 deletion or swap construct; RIPA lysate; IP with anti-GluA1, anti-GluA2 or anti-HA; blot for p97; also after DBeQ (0, 0.1, 1, 10, 50 μM; 30 min) on the cells
[6] = molecular target: HA-GluA1 (UniProt P19490); test: as above
[7] = molecular target: HA-GluA1 (UniProt P19490); test: co-IP; COS7 cells co-transfected with equal amounts of p97 and HA-GluA1 plasmids and various amounts of non-tagged GluA2 plasmid; IP with anti-GluA1, blot for p97

Q: Which binding [1] does the source give for “HA-GluA1 (from UniProt P19490 19-907) (receptor)” here?
A: binds

Q: For “HA-GluA2 (from UniProt P19491 22-883) (receptor)”, which binding [1] is on record?
A: no binding

Q: What does the source list for “p97 (valonsin-containing protein), endogenous (from UniProt P46462 1-806)”?
A: binding [2]: binds; binding [3]: binds; binding [4]: no binding

Q: For “p97 expressed in mammalian cells (pcDNA3.1) (from UniProt P46462 1-806)”, which binding [5] is on record?
A: no binding

Q: What about the binding [6] of the same substance?
A: binds

Q: And the binding [7]?
A: binds
